# Data as given in paper PMC5838220.
# Protein sequences, listed by entry. Tags and fused reporters are not part of them.
# UniProt Q7L523: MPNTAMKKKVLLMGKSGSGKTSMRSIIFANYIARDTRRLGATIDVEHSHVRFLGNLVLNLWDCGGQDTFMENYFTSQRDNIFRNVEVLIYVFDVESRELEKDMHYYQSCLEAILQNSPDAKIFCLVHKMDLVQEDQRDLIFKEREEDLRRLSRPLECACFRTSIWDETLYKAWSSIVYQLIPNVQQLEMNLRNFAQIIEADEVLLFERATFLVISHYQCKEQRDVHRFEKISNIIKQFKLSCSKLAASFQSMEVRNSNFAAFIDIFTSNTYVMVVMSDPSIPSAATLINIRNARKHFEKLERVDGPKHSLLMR
# UniProt Q9HB90: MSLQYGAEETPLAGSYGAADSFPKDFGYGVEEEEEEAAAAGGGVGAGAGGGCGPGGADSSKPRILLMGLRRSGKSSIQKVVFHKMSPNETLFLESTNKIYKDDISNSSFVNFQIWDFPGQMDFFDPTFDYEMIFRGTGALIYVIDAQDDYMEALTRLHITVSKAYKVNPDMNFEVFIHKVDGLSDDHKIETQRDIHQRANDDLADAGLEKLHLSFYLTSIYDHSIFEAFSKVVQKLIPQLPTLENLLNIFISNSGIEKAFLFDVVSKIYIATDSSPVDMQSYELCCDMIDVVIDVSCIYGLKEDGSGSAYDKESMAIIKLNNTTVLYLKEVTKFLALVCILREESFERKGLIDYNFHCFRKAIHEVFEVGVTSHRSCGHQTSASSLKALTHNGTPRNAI
# UniProt Q8IVH8: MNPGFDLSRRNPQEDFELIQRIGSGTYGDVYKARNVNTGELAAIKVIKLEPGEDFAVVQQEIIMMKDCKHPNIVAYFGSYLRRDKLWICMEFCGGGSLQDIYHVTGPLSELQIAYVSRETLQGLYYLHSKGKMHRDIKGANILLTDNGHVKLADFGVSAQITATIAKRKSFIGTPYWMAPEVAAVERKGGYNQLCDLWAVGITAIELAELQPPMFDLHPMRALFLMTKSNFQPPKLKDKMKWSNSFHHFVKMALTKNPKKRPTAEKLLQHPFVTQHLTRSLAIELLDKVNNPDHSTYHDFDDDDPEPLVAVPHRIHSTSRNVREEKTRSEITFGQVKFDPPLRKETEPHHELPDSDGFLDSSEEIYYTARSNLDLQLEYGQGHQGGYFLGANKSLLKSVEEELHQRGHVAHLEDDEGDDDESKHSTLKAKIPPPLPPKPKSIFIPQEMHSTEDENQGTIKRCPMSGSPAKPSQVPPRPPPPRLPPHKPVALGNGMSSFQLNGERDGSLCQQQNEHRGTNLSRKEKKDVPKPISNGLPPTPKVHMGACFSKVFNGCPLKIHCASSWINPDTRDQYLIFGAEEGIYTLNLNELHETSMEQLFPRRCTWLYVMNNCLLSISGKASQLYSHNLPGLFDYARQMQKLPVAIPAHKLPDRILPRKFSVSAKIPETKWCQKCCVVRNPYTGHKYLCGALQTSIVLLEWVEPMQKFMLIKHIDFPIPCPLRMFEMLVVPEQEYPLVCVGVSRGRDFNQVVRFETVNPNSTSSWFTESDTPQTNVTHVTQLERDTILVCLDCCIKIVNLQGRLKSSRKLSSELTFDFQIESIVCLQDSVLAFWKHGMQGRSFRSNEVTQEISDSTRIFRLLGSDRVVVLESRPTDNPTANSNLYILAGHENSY
# UniProt Q9UBN7: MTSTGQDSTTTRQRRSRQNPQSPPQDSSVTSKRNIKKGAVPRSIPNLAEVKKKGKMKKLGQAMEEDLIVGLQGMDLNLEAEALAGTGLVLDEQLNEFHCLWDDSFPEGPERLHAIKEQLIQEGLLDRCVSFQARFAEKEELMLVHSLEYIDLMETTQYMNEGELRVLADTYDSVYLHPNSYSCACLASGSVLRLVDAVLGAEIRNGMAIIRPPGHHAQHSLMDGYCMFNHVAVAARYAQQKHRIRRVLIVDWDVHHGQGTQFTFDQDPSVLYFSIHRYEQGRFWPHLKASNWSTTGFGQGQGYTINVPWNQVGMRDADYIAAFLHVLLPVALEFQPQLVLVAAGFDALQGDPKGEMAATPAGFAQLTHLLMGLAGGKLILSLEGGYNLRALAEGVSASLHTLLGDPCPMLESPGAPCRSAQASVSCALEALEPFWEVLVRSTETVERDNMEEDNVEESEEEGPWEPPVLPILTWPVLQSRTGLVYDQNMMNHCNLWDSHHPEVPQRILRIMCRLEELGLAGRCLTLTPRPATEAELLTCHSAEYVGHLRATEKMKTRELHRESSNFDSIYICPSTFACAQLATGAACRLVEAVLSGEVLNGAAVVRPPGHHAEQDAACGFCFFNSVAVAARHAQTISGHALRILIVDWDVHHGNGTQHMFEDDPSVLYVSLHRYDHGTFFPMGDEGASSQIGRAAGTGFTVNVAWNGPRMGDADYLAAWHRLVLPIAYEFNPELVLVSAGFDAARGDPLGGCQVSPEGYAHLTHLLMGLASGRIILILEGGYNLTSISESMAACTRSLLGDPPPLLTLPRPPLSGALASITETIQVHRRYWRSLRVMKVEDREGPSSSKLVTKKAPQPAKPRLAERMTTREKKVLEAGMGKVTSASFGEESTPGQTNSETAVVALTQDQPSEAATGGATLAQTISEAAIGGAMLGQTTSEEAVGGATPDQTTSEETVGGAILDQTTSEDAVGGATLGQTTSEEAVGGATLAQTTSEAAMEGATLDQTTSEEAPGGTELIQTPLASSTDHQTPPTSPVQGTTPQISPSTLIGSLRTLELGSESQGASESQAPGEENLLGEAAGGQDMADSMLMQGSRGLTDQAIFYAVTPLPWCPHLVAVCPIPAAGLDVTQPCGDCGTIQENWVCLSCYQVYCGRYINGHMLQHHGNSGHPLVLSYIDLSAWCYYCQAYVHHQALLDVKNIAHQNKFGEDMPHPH
# Results are given in words; binding and its absence hold for the method and conditions named. For part of these data: Binding seen in cells or lysates may run through a third protein. Some entries that bind do so weakly or less than the wild type. For part of these data: Tags and fused reporters may be left off the sequences shown.
# Tests used:
# [1] = target: Rag A (human (endogenous in HEK293A)) (UniProt Q7L523); test: co-IP; RagC or RagA immunoprecipitates from lysates of HEK293A cells transfected with FLAG-tagged proteins, immunoblotted; for RagA cells in complete media or amino acid starved
# [2] = target: Rag C (human (endogenous in HEK293A)) (UniProt Q9HB90); test: as above
# [3] = target: endogenous TFEB (human (endogenous in HEK293A)) (UniProt P19484); test: co-IP; HEK293A cells transfected with FLAG-tagged WT-MAP4K3, KD-MAP4K3 or HDAC6; endogenous TFEB immunoprecipitated and blotted for MAP4K3 (text; the legend says FLAG immunoprecipitates)
# [4] = target: T1, recombinant GST-TFEB amino acids 1-37 (UniProt P19484); test: pull-down; FLAG immunoprecipitates from transfected HEK293A incubated with recombinant GST-TFEB aa 1-37 or GST alone, then mixed with beads; eluate of GST-bound fractions blotted with anti-FLAG and anti-GST; both purified
# T1 sequence: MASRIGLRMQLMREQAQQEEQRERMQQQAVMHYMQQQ
# [5] = target: recombinant TFEB generated by in vitro transcription and translation (UniProt P19484); test: pull-down; FLAG immunoprecipitates (purified FLAG-tagged proteins from transfected HEK293A) incubated with in vitro transcribed and translated TFEB; pulled down with an anti-TFEB antibody, immunoblotted; only the binder purified
binding [1],binding [2],binding [3],binding [4],binding [5],Substance
binds,binds,binds,binds,binds,WT-MAP4K3-FLAG (from UniProt Q8IVH8 1-894) (enzyme)
–,–,no binding,–,–,HDAC6-FLAG (from UniProt Q9UBN7 1-1215)
